{
  "source": "the supplement of paper PMC9446081",
  "note": "In all, about 39,000 compounds went through this assay and about 220 (0.56%) showed activity. The list shows a part of the results.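 Also: static incubation at 37 °C against the wild-type strain, values averaged over two biological replicates.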",
  "data": [
    {"test_system": "Escherichia coli K-12 BW25113", "assay": "relative growth (OD600 normalised to plate interquartile mean) (fraction); higher = less growth inhibition, active = 0.2 or less", "conditions": "50 µM; LB; incubation time: overnight (16-24 h)", "values": [
      {"smiles": "C[C@@H]1CN([C@@H](C)CO)S(=O)(=O)c2ccc(-c3ccccc3F)cc2O[C@H]1CN(C)Cc1cncnc1", "relative growth": "inactive: 0.984"},
      {"smiles": "CN(C)CCCNC(=O)C[C@@H]1CC[C@H]2[C@@H](COC[C@@H](O)CN2S(=O)(=O)c2ccc(F)cc2)O1", "relative growth": "inactive: 1.03"},
      {"smiles": "Cc1cnc2c(c1N1CCOCC1)c(=O)n(C)c(=O)n2C", "relative growth": "inactive: 1.02"},
      {"smiles": "COc1ccc(NC(=O)Nc2ccc3c(c2)C(=O)N([C@H](C)CO)C[C@@H](C)[C@@H](CN(C)Cc2ccc(C(F)(F)F)cc2)O3)cc1", "relative growth": "inactive: 0.929"},
      {"smiles": "O=C(C[C@@H]1C[C@H]2c3cc(NC(=O)NC4CCCC4)ccc3O[C@H]2[C@@H](CO)O1)NCc1ccc2c(c1)OCO2", "relative growth": "inactive: 1.02"},
      {"smiles": "Cc1noc(C)c1NC(=O)N(C)C[C@@H]1Oc2c(NC(=O)NC(C)C)cccc2C(=O)N([C@@H](C)CO)C[C@@H]1C", "relative growth": "inactive: 0.995"},
      {"smiles": "CO[C@@H]1CN(C)C(=O)c2ccc(NC(=O)Nc3ccccc3)cc2OC[C@@H](C)N(C(=O)CN(C)C)C[C@@H]1C", "relative growth": "inactive: 1.01"},
      {"smiles": "CCNC(=O)c1cc2c(c(-c3cccc(-c4cccc(F)c4)c3)n1)[C@H](CCO)N([S@@](=O)C(C)(C)C)C2", "relative growth": "inactive: 0.997"},
      {"smiles": "COc1ccc2c3c(n(c2c1)C)[C@H](CO)N(C[C@]13CCN(CC1)C(=O)c1cccnc1)C(=O)c1cccnc1", "relative growth": "inactive: 1.02"},
      {"smiles": "C[C@@H](O)[C@H](N)C(=O)O", "relative growth": "inactive: 0.997"},
      {"smiles": "C[C@H]1CN([C@@H](C)CO)S(=O)(=O)c2ccc(C#Cc3cccc(F)c3)cc2O[C@H]1CN(C)S(=O)(=O)c1cn(C)cn1", "relative growth": "inactive: 0.979"},
      {"smiles": "CNCCC=C1c2ccccc2CCc2ccccc21.Cl", "relative growth": "inactive: 1.07"},
      {"smiles": "c1ccc2[nH]c(-c3ccncc3)nc2c1", "relative growth": "inactive: 1.02"},
      {"smiles": "Cn1cc(CN2CCC3(CC2)CNC(=O)CO3)cn1", "relative growth": "inactive: 1.04"},
      {"smiles": "Cc1noc(C)c1NC(=O)Nc1ccc2c(c1)CC(=O)N([C@@H](C)CO)C[C@@H](C)[C@@H](CN(C)S(=O)(=O)c1c(C)noc1C)O2", "relative growth": "inactive: 0.983"},
      {"smiles": "CO[C@H]1C[C@@H]2CC[C@@H](C)[C@@](O)(O2)C(=O)C(=O)N2CCCC[C@H]2C(=O)O[C@H]([C@H](C)C[C@@H]2CC[C@@H](OP(C)(C)=O)[C@H](OC)C2)CC(=O)[C@H](C)/C=C(\\C)[C@@H](O)[C@@H](OC)C(=O)[C@H](C)C[C@H](C)/C=C/C=C\\C=C\\1C", "relative growth": "inactive: 0.837"},
      {"smiles": "C[C@@H]1CN([C@@H](C)CO)C(=O)c2cc(NC(=O)Cc3cn(C)c4ccccc34)ccc2O[C@@H]1CN(C)C(=O)Nc1ccc(C(F)(F)F)cc1", "relative growth": "inactive: 0.987"},
      {"smiles": "O=C(O)c1cc2c([nH]c1=O)CCCC2", "relative growth": "inactive: 0.914"},
      {"smiles": "Cl.NCCCC(N)(C(=O)O)C(F)F.O", "note": "(stereo unspecified)", "relative growth": "inactive: 0.867"},
      {"smiles": "COCC#Cc1ccc2c(c1)O[C@H](CN(C)Cc1ccc(F)cc1)[C@@H](C)CN([C@@H](C)CO)S2(=O)=O", "relative growth": "inactive: 1"},
      {"smiles": "C[C@@H]1CCCCO[C@@H](CN(C)C(=O)Nc2ccc3c(c2)OCO3)[C@@H](C)CN([C@H](C)CO)C(=O)c2cc(NC(=O)c3ccncc3)ccc2O1", "relative growth": "inactive: 0.982"},
      {"smiles": "CN(C)CCCNC(=O)C[C@@H]1CC[C@@H]2[C@@H](COc3ccc(NC(=O)c4ccccc4F)cc3C(=O)N2C)O1", "relative growth": "inactive: 0.979"},
      {"smiles": "C[C@H]1CN([C@@H](C)CO)C(=O)c2cc(NS(C)(=O)=O)ccc2O[C@@H]1CN(C)S(=O)(=O)c1ccc(Cl)cc1", "relative growth": "inactive: 0.995"},
      {"smiles": "COCC#Cc1ccc([C@H]2[C@@H](CO)N3C(=O)CN(C(=O)c4ccncc4)C[C@@H]23)cc1", "relative growth": "inactive: 0.993"},
      {"smiles": "COc1ccc(NC(=O)Nc2ccc3c(c2)C(=O)N([C@@H](C)CO)C[C@H](C)[C@@H](CN(C)C(=O)CCC(F)(F)F)OCCCC[C@H](C)O3)cc1", "relative growth": "inactive: 1.07"},
      {"smiles": "Cn1cnc(S(=O)(=O)N[C@@H]2CC[C@@H](CC(=O)NCC3CC3)O[C@H]2CO)c1", "relative growth": "inactive: 0.937"},
      {"smiles": "C[C@@H]1CN([C@@H](C)CO)C(=O)Cc2cc(NC(=O)CCC(F)(F)F)ccc2O[C@@H]1CN(C)S(=O)(=O)c1cccs1", "relative growth": "inactive: 0.985"},
      {"smiles": "CN1CCN(C(=O)C[C@H]2CC[C@H]3[C@H](COc4ccc(NC(=O)C5CCCCC5)cc4C(=O)N3C)O2)CC1", "relative growth": "inactive: 1.02"},
      {"smiles": "CC(C)(C)c1cc(CCC(=O)OCC(COC(=O)CCc2cc(C(C)(C)C)c(O)c(C(C)(C)C)c2)(COC(=O)CCc2cc(C(C)(C)C)c(O)c(C(C)(C)C)c2)COC(=O)CCc2cc(C(C)(C)C)c(O)c(C(C)(C)C)c2)cc(C(C)(C)C)c1O", "relative growth": "inactive: 0.993"},
      {"smiles": "COc1ccc(S(=O)(=O)N(C)C[C@@H]2Oc3ncc(-c4ccncc4)cc3C(=O)N([C@H](C)CO)C[C@@H]2C)cc1", "relative growth": "inactive: 0.998"},
      {"smiles": "C[C@@H]1CCCCO[C@H](CN(C)CC2CC2)[C@H](C)CN([C@H](C)CO)C(=O)c2cc(NC(=O)c3ccccc3)ccc2O1", "relative growth": "inactive: 1"},
      {"smiles": "Cn1cnc(CCNC(=O)C[C@@H]2CC[C@H]3[C@@H](COC[C@H](O)CN3C(=O)Nc3ccc(Cl)cc3)O2)c1", "relative growth": "inactive: 0.964"},
      {"smiles": "COc1ccc(S(=O)(=O)Nc2ccc3c(c2)C(=O)N([C@H](C)CO)C[C@H](C)[C@H](CN(C)C(=O)Nc2ccc4c(c2)OCO4)OCCCC[C@H](C)O3)cc1", "relative growth": "inactive: 1.04"},
      {"smiles": "COc1ccccc1CNC(=O)C[C@H]1CC[C@@H]2[C@H](COC[C@H](O)CN2C(=O)Nc2ccc(Cl)cc2)O1", "relative growth": "inactive: 0.925"},
      {"smiles": "C[C@@H]1CN([C@H](C)CO)S(=O)(=O)c2ccc(C#Cc3cccc(F)c3)cc2O[C@H]1CN(C)S(=O)(=O)c1ccccc1F", "relative growth": "inactive: 0.947"},
      {"smiles": "C[C@@H]1CN([C@@H](C)CO)C(=O)c2cc(NC(=O)C3CCCCC3)ccc2O[C@@H](C)CCCCO[C@H]1CN(C)C(=O)CCC(F)(F)F", "relative growth": "inactive: 1"},
      {"smiles": "C[C@@H]1CCCCO[C@@H](CN(C)CC2CC2)[C@H](C)CN([C@H](C)CO)C(=O)c2cc(NC(=O)Nc3ccc(F)cc3)ccc2O1", "relative growth": "inactive: 1.02"},
      {"smiles": "CC(C)NC(=O)Nc1ccc2c(c1)C(=O)N([C@@H](C)CO)C[C@H](C)[C@@H](CN(C)S(C)(=O)=O)OCCCC[C@@H](C)O2", "relative growth": "inactive: 1.01"},
      {"smiles": "C[C@H]1CN([C@@H](C)CO)S(=O)(=O)c2ccc(C#Cc3cccnc3)cc2O[C@@H]1CN(C)CC1CCOCC1", "relative growth": "inactive: 0.976"},
      {"smiles": "O=C(C[C@@H]1CC[C@H](NS(=O)(=O)c2ccccc2)[C@@H](CO)O1)NCc1ccncn1", "relative growth": "inactive: 1.01"},
      {"smiles": "C[C@@H]1CN([C@@H](C)CO)C(=O)Cc2cc(NC(=O)CCCCCC(=O)Nc3ccccc3N)ccc2O[C@H]1CN(C)C(=O)Nc1ccccc1", "relative growth": "inactive: 0.991"},
      {"smiles": "C[C@H](CO)N1C[C@H](C)[C@H](CN(C)C(=O)Cc2ccccc2)OCCCC[C@H](C)Oc2ccc(NS(=O)(=O)c3cccs3)cc2C1=O", "relative growth": "inactive: 0.989"},
      {"smiles": "CC=Cc1ccc2n(c1=O)C[C@@H]1[C@@H](CO)[C@H](C(=O)NCCc3cn(C)cn3)N(C(=O)C3CC3)[C@H]21", "relative growth": "inactive: 1.01"},
      {"smiles": "C[C@H](CO)N1C[C@H](C)[C@@H](CN(C)S(=O)(=O)c2ccccc2)Oc2ccc(NC(=O)Cc3ccccc3)cc2C1=O", "relative growth": "inactive: 0.964"},
      {"smiles": "COc1ccc(C(=O)Oc2ccc(CCn3c(NC(=O)c4ccc(C(F)(F)F)cc4)nc4cc(C(=O)O)ccc43)cc2)cc1", "relative growth": "inactive: 1"},
      {"smiles": "C[C@@H]1CN([C@H](C)CO)C(=O)c2cc(NC(=O)c3ccncc3)ccc2O[C@H]1CN(C)Cc1ccc(-c2ccccc2)cc1", "relative growth": "inactive: 0.992"},
      {"smiles": "COc1ccc([Si](C)(C)[C@H]2[C@H](CCn3cc(CCO)nn3)O[C@@]3(C(=O)N(C)c4ccccc43)[C@@H]2C)cc1", "relative growth": "inactive: 0.991"},
      {"smiles": "C[C@@H]1CN([C@@H](C)CO)C(=O)c2cc(NC(=O)NC3CCCCC3)ccc2O[C@@H]1CN(C)Cc1ccc(C(=O)Nc2ccccc2N)cc1", "relative growth": "inactive: 0.971"},
      {"smiles": "Cc1ccnc2ccccc12", "relative growth": "inactive: 1.03"},
      {"smiles": "CCS(=O)(=O)Nc1ccc2c(c1)C(=O)N(C)C[C@@H](OC)[C@H](C)CN(Cc1ccccn1)[C@@H](C)CO2", "relative growth": "inactive: 0.992"},
      {"smiles": "C[C@@H]1CCCCO[C@@H](CN(C)C(=O)Cc2ccccc2)[C@@H](C)CN([C@H](C)CO)C(=O)c2cc(NC(=O)Cc3ccccc3)ccc2O1", "relative growth": "inactive: 0.999"},
      {"smiles": "C[C@@H]1CN([C@H](C)CO)C(=O)Cc2cc(NC(=O)Cn3cnnn3)ccc2O[C@@H]1CN(C)S(=O)(=O)c1cccs1", "relative growth": "inactive: 1"},
      {"smiles": "C[C@@H]1CCCCO[C@@H](CN(C)S(=O)(=O)c2cccs2)[C@H](C)CN([C@H](C)CO)C(=O)c2cc(NC(=O)CCC(F)(F)F)ccc2O1", "relative growth": "inactive: 0.977"},
      {"smiles": "C[C@H]1CN([C@@H](C)CO)C(=O)Cc2cc(NC(=O)Nc3cccc4ccccc34)ccc2O[C@@H]1CN(C)C(=O)Nc1ccc2c(c1)OCO2", "relative growth": "inactive: 0.995"},
      {"smiles": "Cl.O=C(O)c1cn(-c2ccc(F)cc2)c2cc(N3CCNCC3)c(F)cc2c1=O", "relative growth": "active: 0.0456"},
      {"smiles": "Cc1cc(=O)n2ncnc2[nH]1", "relative growth": "inactive: 0.999"},
      {"smiles": "CSCC[C@H](N)C(=O)O", "relative growth": "inactive: 1.01"},
      {"smiles": "C[C@@H]1CN([C@@H](C)CO)S(=O)(=O)c2ccc(C#CC3(O)CCCC3)cc2O[C@@H]1CN(C)C(=O)c1ccccc1", "relative growth": "inactive: 1"},
      {"smiles": "C[C@@H]1CN([C@@H](C)CO)S(=O)(=O)c2ccc(C#CC3CCCCC3)cc2O[C@H]1CN(C)C(=O)Cc1ccncc1", "relative growth": "inactive: 0.98"},
      {"smiles": "Cc1noc(C)c1S(=O)(=O)Nc1ccc2c(c1)CC(=O)N([C@H](C)CO)C[C@H](C)[C@@H](CN(C)Cc1ccc(C(=O)O)cc1)O2", "relative growth": "inactive: 0.98"},
      {"smiles": "COc1ccc(S(=O)(=O)Nc2cccc3c2O[C@H](CN(C)S(=O)(=O)c2ccc(F)cc2)[C@H](C)CN([C@@H](C)CO)C3=O)cc1", "relative growth": "inactive: 1.02"}
    ]}
  ]
}
